The source of these data is ChEMBL document CHEMBL4888484, “Replenishing the malaria drug discovery pipeline: Screening and hit evaluation of the MMV Hit Generation Library 1 (HGL1) against asexual blood stage Plasmodium falciparum ,using a nano luciferase reporter read-out” (2022).

Hit rate of the full screen: of about 150,000 compounds, about 540 (0.36%) showed an effect of 50% or more. Some of the results follow.

This assay relates to Plasmodium falciparum. The assay is described as follows: Primary screen in NF54 nanoGlo assay, in single point, at 2uM, 72h; a lower Z score goes with more inhibition. The class given is functional, Erythrocyte. The conditions noted are these: timepoint 72 hour.
Broadly, the % Inhibition is the change of the read-out against control, counted positive when it falls. On to `Cc1noc2ncnc(NC[C@](C)(O)c3cccc(F)c3)c12`, for which the “% Inhibition” value is -7% and the Z score is 1.41.

On to `COc1ccc(OC)c(NC(=O)c2cc(C)nc3onc(-c4ccc(F)cc4)c23)c1`, for which the “% Inhibition” value is 3% and the Z score is -0.39.

As to `CC(C)(C)N1CC[C@H]1C(=O)N[C@H]1CC[C@@H](CO)CC1`, the “% Inhibition” value is reported as 15% and the Z score was -1.99.

Regarding `Brc1cccc(-c2ccc(-c3cc(-c4ccccc4)nnc3-c3ccccc3)o2)c1`, the “% Inhibition” value is recorded as 41% and the Z score is recorded as -6.11.

In the case of `COc1ccc(-c2ccc(N(C)C)nc2)c(OC)c1OC`, the “% Inhibition” value is recorded as -15% and the Z score was found to be 2.54.

Consider `CCN(CC)S(=O)(=O)c1cc(C)c(C)c(NCc2ccon2)c1`, for which the “% Inhibition” value stood at 23% and the Z score is recorded as -2.48.

Take `O=C(Nc1ccc(-c2cc[nH]n2)cc1)c1ccc[nH]c1=O`: the “% Inhibition” value was -11% and the Z score came out at 1.41.

For the compound `COCC1(C(=O)N2CC[C@@H]3OCc4cccc(c4)Oc4cc(ccc4OC)CCC(=O)N[C@@H]3C2)CCC1`, the “% Inhibition” value is reported as -15% and the Z score came out at 1.68.

Regarding `O=C(CN1c2ccccc2S(=O)(=O)c2ccccc21)NC1CCCCCC1`, the “% Inhibition” value is -14% and the Z score worked out at 1.51.

As for `COc1cc(NC(=O)C(=O)c2ccc(C)cc2)c(C(=O)N2CCCCC2)cc1OC`, the “% Inhibition” value is reported as -6% and the Z score came to 1.07.

Turning to `Cc1nnc(CN(C)C(=O)c2cncc(Cl)c2)o1`, the “% Inhibition” value is -2% and the Z score came out at 0.28.

Consider `CCCN(CCc1ccccn1)c1nccn(C)c1=O`, for which the “% Inhibition” value is recorded as 9% and the Z score is given as -1.69.

As to `O=C(c1nccc2ccccc12)N1CC[C@H](c2c(F)cccc2F)C1`, the “% Inhibition” value is given as -1% and the Z score is given as 0.11.

`COc1cccnc1-c1cccc(-c2ccn(CC(=O)Nc3cnccn3)n2)c1`: the “% Inhibition” value is on record as -11% and the Z score came out at 1.

Turning to `O=C(Cc1ccc(Oc2nccc(C(F)(F)F)n2)cc1)NCCO`, the “% Inhibition” value amounted to 33% and the Z score is on record as -0.75.

Take `Cc1nc(CN2CCO[C@H](c3cc(F)c(Cl)cc3Cl)C2)no1`: the “% Inhibition” value is reported as -17% and the Z score is recorded as 2.62.

Take `O=C(NCCCn1ccnc1)c1c[nH]c(=O)n(Cc2ccc3c(c2)OCO3)c1=O`: the “% Inhibition” value is recorded as -9% and the Z score turned out to be 1.54.

Take `C[C@@H](O)CNS(=O)(=O)c1c(Cl)cccc1C(F)(F)F`: the “% Inhibition” value is reported as 1% and the Z score is recorded as -0.17.

As for `O=C(CN[C@H](CO)c1ccccc1)NC1CCCC1`, the “% Inhibition” value is given as -4% and the Z score is given as 0.62.

For `COCc1nc(C(=O)N2CCCc3cc(-c4ccccc4)ccc32)co1`, the “% Inhibition” value was -8% and the Z score is on record as 1.08.

Take `Cc1cc2n(CCNC(=O)N3CCN(S(C)(=O)=O)C3=O)ccn2n1`: the “% Inhibition” value is -2% and the Z score amounted to 0.36.

`CCc1cc(CC)c(NC(=O)N2CCOC[C@@H](CO)C2)c(CC)c1`: the “% Inhibition” value was -4% and the Z score was found to be 0.87.

For the compound `CCCc1c(NC(=O)c2cc(C)no2)cnn1-c1cccc(C)c1`, the “% Inhibition” value is recorded as -7% and the Z score turned out to be 0.85.

`C/C=C/CC(=O)N1CCN(CCOC)[C@@H]2CS(=O)(=O)C[C@@H]21`: the “% Inhibition” value is on record as -13% and the Z score was 1.67.

As to `CC(C)[C@H](Cn1nccn1)NC(=O)Cc1ccc(F)cc1`, the “% Inhibition” value is -15% and the Z score came to 2.29.

For `Cc1noc(C)c1C(=O)Cn1nnnc1C`, the “% Inhibition” value came to 15% and the Z score was -2.58.

Turning to `CCS(=O)(=O)N1CCC[C@H](C(=O)N(C)Cc2ccns2)C1`, the “% Inhibition” value turned out to be 15% and the Z score is -1.89.

For the compound `O=C(O)[C@H]1CCCN(Cc2ccc(-n3ccnc3)cc2)C1`, the “% Inhibition” value is listed as -12% and the Z score amounted to 1.56.

With `CN(C(=O)c1csc(-c2ccco2)n1)c1ccccc1`, the “% Inhibition” value is -3% and the Z score was found to be 0.5.

On to `O=C(Nc1ncc(Cc2ccccc2)s1)c1cc(S(=O)(=O)N2CCCCC2)ccc1Cl`, for which the “% Inhibition” value is listed as -12% and the Z score is recorded as 1.64.

In the case of `COc1cc(OC)cc(C(=O)N[C@@H](C)Cc2ccoc2)c1`, the “% Inhibition” value is -1% and the Z score is listed as 0.21.

For the compound `Cc1ccccc1C(=O)N(Cc1cccc(F)c1)c1ccc(CC(=O)NCCN2CCCCC2)cc1`, the “% Inhibition” value was found to be 58% and the Z score is given as -4.25.

For the compound `Cn1cc(C2CCN(C(=O)C3COc4ccccc4O3)C2)cn1` (centres undefined), the “% Inhibition” value is listed as 4% and the Z score is -0.63.

For the compound `Cc1ccccc1-c1noc(-c2cccnc2N(C)Cc2ccccc2)n1`, the “% Inhibition” value stood at 2% and the Z score is listed as -0.35.

Consider `CCC(=O)N1CCN(C(=O)c2cccnc2O)C1`, for which the “% Inhibition” value is -7% and the Z score was determined as 1.32.

As to `CO[C@@H](C(=O)N1CCN(C2CCCCC2)C(=O)C1)c1ccccc1`, the “% Inhibition” value is on record as 5% and the Z score is recorded as -0.98.

Consider `CCOC(=O)CN(CC1CC1)C(=O)CCn1cc(C)cn1`, for which the “% Inhibition” value was found to be 4% and the Z score was -0.51.

Consider `O=c1n(Cc2ccc(F)cc2F)nc([C@H]2CCCNC2)n1-c1ccccc1`, for which the “% Inhibition” value was found to be 8% and the Z score is reported as -0.73.

For the compound `CCCN1CCN(C(=O)c2nc(N3CCOCC3)c3c(C)scc3n2)CC1`, the “% Inhibition” value is recorded as -3% and the Z score is 0.37.

For the compound `COc1ccc(CN[C@H](C)c2onc(C)c2C(=O)O)cc1`, the “% Inhibition” value is listed as -12% and the Z score is recorded as 1.88.

`Cc1cc(F)ccc1C(=O)NC(C)C(C)C(=O)O` (centres undefined): the “% Inhibition” value was -7% and the Z score was determined as 0.72.

As for `Cc1cc([C@H](C(=O)O)N(Cc2nccn2C)C2CC2)ccc1F`, the “% Inhibition” value is listed as -3% and the Z score is on record as 0.46.
